To fix the notation:
T1: UNK ZnF1-6 (called full-length) (human, UniProt Q9C0B0 30-357)
T1 sequence: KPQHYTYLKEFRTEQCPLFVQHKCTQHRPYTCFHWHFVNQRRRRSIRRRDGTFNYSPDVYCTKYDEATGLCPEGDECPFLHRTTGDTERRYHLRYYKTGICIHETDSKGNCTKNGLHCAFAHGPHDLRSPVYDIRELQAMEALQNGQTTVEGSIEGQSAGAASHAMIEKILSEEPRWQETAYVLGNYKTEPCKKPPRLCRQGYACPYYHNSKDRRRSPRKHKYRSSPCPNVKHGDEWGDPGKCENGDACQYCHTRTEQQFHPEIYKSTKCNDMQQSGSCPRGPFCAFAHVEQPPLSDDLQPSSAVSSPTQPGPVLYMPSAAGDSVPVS

B1: chr16:18805221:18805325:-|3pUTR|ENSG00000157106|unk|total|mutant (ssRNA)
RNA: GGGAGUUCUACAGUCCGACGAUCAAGAAUUCUAUGUUCUGAAAUGCACACUUUCCGAAUGUUUUUCUUUGAAAACAGGCUAACCGUUUUUUCUUUUUUUGACAAAGUUUCAGCUCCUCUUUAAAGUUAUUGUGUCAUUUUUCUCAACAGAGGAUUGAGCAUCA
B2: ENSG00000107863:be:win_251|CDS|ENSG00000107863|bound_else_gene|NA|bound_elsewhere_windowed (ssRNA)
RNA: GGGAGUUCUACAGUCCGACGAUCAAAAUGGAAACAGAGGAGGAAAACAAAGAAACCGCUUGGAACCAAUGGAUACCAUAUUUGUUAAGCAAGUUAAAGAAGGAGGACCUGCUUUUGAAGCUGGAUUAUGUACAGGUGACCGAACAACAGAGGAUUGAGCAUCA
B3: ENSG00000198589:be:win_4901|CDS|ENSG00000198589|bound_else_gene|NA|bound_elsewhere_windowed (ssRNA)
RNA: GGGAGUUCUACAGUCCGACGAUCCAGAUGCAAUCAGCGAGGUGCUAUCUACUCUUUCUUUAGAAGUCAAUAAGUCUCCGGAAACCAAAAAUGAUAGAGGAAAUGACUUGGACACUAAGGCUACACCGUCAGUUUCAGUUUCAACAACAGAGGAUUGAGCAUCA
B4: ENSG00000070961:be:win_4201|3pUTR|ENSG00000070961|bound_else_gene|NA|bound_elsewhere_windowed (ssRNA)
RNA: GGGAGUUCUACAGUCCGACGAUCACUGCUGUAUUUUCAGGAAAAAAAAAAAAAGGGGUGUUUCUAUUGAAACUGUACUAAAUUUUUGCCUACAAUUUACCUUGUUAAAUAUUGUAGAUAAAUUGCUAAUACUAAUAGCCAAAUCAACAGAGGAUUGAGCAUCA
B5: chr1:56708525:56708626:+|3pUTR|ENSG00000162409|unk|FALSE|unique (ssRNA)
RNA: GGGAGUUCUACAGUCCGACGAUCACCUUUCUCAAAUUCUUUUUGCCUCUAUUUAUUUUUGCAUUUCACCAACAGUGAUAAAAUAGUUAAAUGAAACAAAGCAAAGUAUCAACAGUCCCUUAAAUGAGAAUCCUUAUCUUUGAUCAACAGAGGAUUGAGCAUCA
B6: ENSG00000196876:stop:overlap|stop_codon|ENSG00000196876|stop_codon|NA|stop_codon (ssRNA)
RNA: GGGAGUUCUACAGUCCGACGAUCCAGAGGAAGGAAGAAGGGAAAGAGCCAAAAGACAAAAAGAGGUCAGAGAAUCCAAGUGUUAGAGGAGAACAAAAAUUCAGUAUUAUACAGAUCUAAAACUCGCAAGUGAAAGAUUGUUUACAACAGAGGAUUGAGCAUCA
B7: ENSG00000141367:stop:overlap|stop_codon|ENSG00000141367|stop_codon|NA|stop_codon (ssRNA)
RNA: GGGAGUUCUACAGUCCGACGAUCAAGUAAUUGCACUGAAAGCAAAAUCGUGUGGUGGGAGCUAUGCAGCUAUAUUCUGUAGAUAGGAAAGUGUCUCAGCCCAUUGAAGGACAUGCAGCUAGCUUUGCACAGUUUAAGAUGGAACAACAGAGGAUUGAGCAUCA
B8: chr20:56369402:56369507:-|3pUTR|ENSG00000087586|unk|total|mutant (ssRNA)
RNA: GGGAGUUCUACAGUCCGACGAUCAGAAGAGGCCAUGUGUCUCAGAGCUGUUAAGGGCUUAUUUUUUUAAAACAUUGGAGUCACCGCAUGUGUGUAAACUUUAAAUAUGCAAAUAAAUAAGUAUCUAUGUCUGUGUGGAGUGCUCAACAGAGGAUUGAGCAUCA
B9: chr10:74136666:74136778:-|CDS|ENSG00000185009|unk|FALSE|unique (ssRNA)
RNA: GGGAGUUCUACAGUCCGACGAUCUUCAGAGGCUGCAAUUAAGGAUAAUGUGGUCAUAGUAUAUGAACUCUUAGAAGAAAUGUUAGACAAUGGAUUUCCACUGGCUACCGAAUCUAACAUUUUGAAAGAAUUGAUUAAACCACCCAACAGAGGAUUGAGCAUCA
B10: chr22:29695108:29695209:+|3pUTR|ENSG00000186575|msi1|FALSE|unique (ssRNA)
RNA: GGGAGUUCUACAGUCCGACGAUCGUGUGUGUGUGUCUUGCACUCCAGAGCUGACCUCCACCGCCCAGCCUGGGAAGUCAUUGUAGGGAGUGAGACACUGAAGCCCUGAGAAGCCAGUGCCAUCAUCCCCACCCCGCCCAGGGUCAACAGAGGAUUGAGCAUCA
B11: ENSG00000107863:be:win_5651|CDS|ENSG00000107863|bound_else_gene|NA|bound_elsewhere_windowed (ssRNA)
RNA: GGGAGUUCUACAGUCCGACGAUCCCACGACCGACACACCUUUGUCUCUUCAUUGCAACACAGGCAGUUCUUCCAGCACCUUGGCUUCAACAAACAGGCCCCUUCUUUCCAUACCACCACAGUCACCUGACCAAAUAAACGGAGCAACAGAGGAUUGAGCAUCA
B12: chr7:157539055:157540713:-|three_prime_utr|ENSG00000155093|control|control|control (ssRNA)
RNA: GGGAGUUCUACAGUCCGACGAUCACGGAUGUUGUCAGGAAUCAUGAUCUGACUUUAAUUGUGUGUCUUCUAUUAUAACUGCAUAGUAAUAGGGCCCUUAGCUCUCCCGUAGUCAGCGCAGUUUAGCAGUUAAAAGUGUAUUUUCAACAGAGGAUUGAGCAUCA
B13: chr14:59746188:59746291:-|CDS|ENSG00000139970|unk|total|mutant (ssRNA)
RNA: GGGAGUUCUACAGUCCGACGAUCCUGGGUACACCCGGCCCCUCCUUACCAGAUGUGCCUGGGACCGAGUCUCGUGGCUUAUUCCGUUCUGAUUCUGGAACCGAGAUGACUCCUGCAGAGUCCACGGAAGUGAACAAGAUCUUACAACAGAGGAUUGAGCAUCA
B14: ENSG00000113300:stop:overlap|stop_codon|ENSG00000113300|stop_codon|NA|stop_codon (ssRNA)
RNA: GGGAGUUCUACAGUCCGACGAUCUGGAGCUCUUACUGCCUUUCCUGCCCCAAGUCAACGGCAUCCACCUUCCUGGCAGGAGGUAGUCAAGCACCUUCAGAGGACAGCCUUGAUUCACUUGUAAACUUGUGAAAAUCUGAACAUCAACAGAGGAUUGAGCAUCA
B15: chr6:132680848:132683139:-|three_prime_utr|ENSG00000112299|control|control|control (ssRNA)
RNA: GGGAGUUCUACAGUCCGACGAUCGAUAAUUUAAAAAAUGAUGGAUGAGAAAAGAAAGAUUGGUCCGGGUUAAUAUUAUCCUCUAGUAUAAGUGAAUUACUAGUUUCUCUUUAUUUAGACAAACACACACACACCAGAUAAUAUCAACAGAGGAUUGAGCAUCA
B16: ENSG00000198589:be:win_8751|3pUTR|ENSG00000198589|bound_else_gene|NA|bound_elsewhere_windowed (ssRNA)
RNA: GGGAGUUCUACAGUCCGACGAUCGCUGCUGGGUUCUGUAGUUUUAAAAAAUCUAUAUUUUUAGUCAUAAUGAGAAGUCUAUUUUCACCAAUUAUGGAAACAUACAGUGGAGCAAGUAAACCACUUAUUCCAGCUAUAAUAUUACAACAGAGGAUUGAGCAUCA
B17: chr11:62152232:62152344:+|3pUTR|ENSG00000149503|unk|FALSE|unique (ssRNA)
RNA: GGGAGUUCUACAGUCCGACGAUCUGCUCUGUAAAUAGUUGUUUUAAUUUAGCUGAAUGUUAGCAUUUUAGUCUUUGGCAUUUUAGCGUUUGGGAGGUAGAUUAAUAAAGUAUAUUCCUUCAAGCCUGCUGUUGAUACCAUGAACAACAGAGGAUUGAGCAUCA
B18: chr11:125776112:125777381:-|three_prime_utr|ENSG00000196844|control|control|control (ssRNA)
RNA: GGGAGUUCUACAGUCCGACGAUCCACUACGCUCUUUUUCUCUUCCCUGAACCUGAAUUUUGCUCUCCUCUUCUAUGCAUUGGUAGAGAGUGAGAAAGCCAGCUCAUAGUGAAAAGACAAGCAGGCAUAAGGAGACGCAGUGUGCAACAGAGGAUUGAGCAUCA
B19: chr19:12898785:12899385:-|three_prime_utr|ENSG00000161860|control|control|control (ssRNA)
RNA: GGGAGUUCUACAGUCCGACGAUCUCAGAAGUACAGACCAACAGAGAUGGUGAAUGCUGACAGCUGCCGGGAGACUCACGCCUUAGUGACAGUCUCCAGGAGAAGACUGUGAGGCCACCAUUUGGGCCACACUGAGAAAUUGUUCAACAGAGGAUUGAGCAUCA
B20: chr4:185586528:185586629:-|3pUTR|ENSG00000154556|msi1|FALSE|unique (ssRNA)
RNA: GGGAGUUCUACAGUCCGACGAUCAUCCAUAUGAUAUGUUGUACAUUUUAUGGAAAUGUAAUAGAAUCUCACACAUUAUUUUAUAGAAAUAGAGUACAGAAGCAUCACAAGUAUUAAAGUUGGUUUUAGCAAGGAUUAGGAUUACAACAGAGGAUUGAGCAUCA
B21: chr3:50258797:50258898:+|3pUTR|ENSG00000114353|msi1|FALSE|unique (ssRNA)
RNA: GGGAGUUCUACAGUCCGACGAUCGCACAAGAAGCGUGAGACGCCACCAUUCCUGGAAACCACAGUCCACCUGCUCAUUCUCGUAGCUUUUUAAAAAAAUGAAAGUAAAGGAAAAAAAAAAAACUGCAAAUCUAGAAAACUUUUCAACAGAGGAUUGAGCAUCA
B22: ENSG00000136451:be:win_3151|3pUTR|ENSG00000136451|bound_else_gene|NA|bound_elsewhere_windowed (ssRNA)
RNA: GGGAGUUCUACAGUCCGACGAUCUGAGACAGACUUCCUACAUCAGGGACAGGUAUCUGUGUGUCAUUAUACAAAACAGUUCUAGGGGGUUGAACUACAUAGUAAAAAAAUAAAAUAAAUAGUACUUAGUGUAAAAUAAUUUUACAACAGAGGAUUGAGCAUCA

Some of the results follow.

This test has as its target T1, UNK ZnF1-6 (called full-length). Description: nsRBNS (natural sequence RNA bind-n-seq); RBNS binding buffer (assumed for nsRBNS): 25 mM Tris pH 7.5, 150 mM KCl, 3 mM MgCl2, 0.01% Triton X-100, 500 ug/ml BSA, 20 U/ml SUPERase-In, 4 C; UNK is unkempt and MSI1 is Musashi-1; names of the RNAs are library labels; protein concentration not given here; high values mean tight binding.
On to B1, for which the binding signal was 0.554 enrichment R.
B2 displayed a binding signal of 0.631 enrichment R.
B3 had a binding signal of 0.408 enrichment R.
As to B4, the binding signal came out at 0.837 enrichment R.
Next, B5: 0.947 enrichment R; B6: 0.652 enrichment R; B7: 3.79 enrichment R.
Turning to B8, the binding signal amounted to 0.364 enrichment R.
As to B9, the binding signal was 0.63 enrichment R.
Take B10: the binding signal was 0.743 enrichment R.
Next, B11: 0.607 enrichment R; B12: 3.45 enrichment R.
Next, B13: 0.531 enrichment R; B14: 21.5 enrichment R; B15: 5.67 enrichment R.
For B16, the binding signal came to 3.47 enrichment R.
Molecule B17 returned a binding signal of 110 enrichment R.
Consider B18, for which the binding signal was found to be 0.574 enrichment R.
On to B19, for which the binding signal turned out to be 0.504 enrichment R.
Next, B20: 11.6 enrichment R; B21: 2.62 enrichment R; B22: 44 enrichment R.

The values above are taken from PMC12136788.
